In all, about 310,000 compounds went through this assay and about 14,000 (4.5%) showed an effect of 50% or more. The effect is printed as a negative number. This is one part of the list.
Molecular target: human ether-à-go-go-related gene (hERG) potassium channel (human, UniProt Q12809)
Assay: primary screen, population patch clamp on CHO cells stably expressing hERG
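Further: peak tail current of the secondary pulse compared with the same well before compound.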

Sequence of human ether-à-go-go-related gene (hERG) potassium channel (Q12809 whole entry, looked up): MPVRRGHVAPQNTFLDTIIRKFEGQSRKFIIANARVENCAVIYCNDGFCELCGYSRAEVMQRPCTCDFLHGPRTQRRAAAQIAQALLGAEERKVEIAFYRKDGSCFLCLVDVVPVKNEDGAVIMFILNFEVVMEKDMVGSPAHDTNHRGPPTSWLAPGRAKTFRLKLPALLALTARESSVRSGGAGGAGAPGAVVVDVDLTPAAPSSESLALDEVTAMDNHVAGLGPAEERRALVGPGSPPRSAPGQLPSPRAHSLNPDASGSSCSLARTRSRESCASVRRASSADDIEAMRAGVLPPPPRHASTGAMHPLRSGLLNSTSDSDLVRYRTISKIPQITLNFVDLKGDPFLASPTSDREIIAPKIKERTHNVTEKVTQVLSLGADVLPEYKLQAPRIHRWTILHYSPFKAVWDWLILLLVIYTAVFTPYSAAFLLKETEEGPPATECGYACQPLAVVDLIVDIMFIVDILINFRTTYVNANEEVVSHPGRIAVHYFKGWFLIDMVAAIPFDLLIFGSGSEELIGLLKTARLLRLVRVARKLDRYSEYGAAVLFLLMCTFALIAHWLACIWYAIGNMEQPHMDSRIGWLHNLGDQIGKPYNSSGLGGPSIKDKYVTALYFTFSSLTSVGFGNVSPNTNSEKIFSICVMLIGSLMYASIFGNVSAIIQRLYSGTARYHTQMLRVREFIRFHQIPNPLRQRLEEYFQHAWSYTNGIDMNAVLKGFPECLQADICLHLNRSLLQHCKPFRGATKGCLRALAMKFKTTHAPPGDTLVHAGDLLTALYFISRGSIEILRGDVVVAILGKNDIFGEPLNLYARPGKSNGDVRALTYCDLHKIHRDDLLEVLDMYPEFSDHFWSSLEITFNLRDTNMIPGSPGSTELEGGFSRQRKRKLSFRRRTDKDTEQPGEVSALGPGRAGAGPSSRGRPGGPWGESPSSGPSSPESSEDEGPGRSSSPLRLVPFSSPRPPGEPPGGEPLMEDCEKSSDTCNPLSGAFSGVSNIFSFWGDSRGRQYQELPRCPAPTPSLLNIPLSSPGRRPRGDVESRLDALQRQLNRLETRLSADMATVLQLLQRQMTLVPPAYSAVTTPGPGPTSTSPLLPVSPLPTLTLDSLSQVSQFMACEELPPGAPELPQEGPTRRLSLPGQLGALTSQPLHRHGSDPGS

SMILES | hERG current change (%, negative = inhibition) at 10uM [%]
O=C(CNCC1CCCO1)N1CCCCCC1.O=C(O)C(=O)O (stereo not shown) | 12.4
Cc1nn(-c2ccccc2)c2c1C1(C(=O)N(C)c3ccccc31)N(c1ccccc1)C(=O)N2 (stereo not shown) | -8.05
CCOC(=O)CNC(=O)CSc1nnc(NC(=O)c2ccc(S(=O)(=O)N3CCOCC3)cc2)s1 | 16.8
Cc1nn(Cc2ccc([N+](=O)[O-])cc2)c(=O)n1-c1cccc(Cl)c1 | -15.6
CC(C)(C)c1ccc(S(=O)(=O)NCC(=O)N2CCN(Cc3ccccc3)CC2)cc1 | -2.46
CCOC(=O)N1CCN(C(=O)CCn2c(=O)[nH]c3ccsc3c2=O)CC1 | 12.7
Nc1nc(-c2ccccc2)cc(C(F)(F)F)n1 | 4.51
COc1ccc(CN2CCC(C(=O)Nc3ccc(Oc4cccnc4)cc3)CC2)c(C)c1C | -36.8
CN1CCN(S(=O)(=O)c2cc(Cl)c(Cl)cc2Cl)CC1 | 0.0247
COc1cc(C)c(C(=O)Oc2cc(C)c(C(=O)O)c(O)c2)c(O)c1 | 11.5
O=C(CN1CCN(c2ccccn2)CC1)NCc1cccs1 | -26.2
O=C(NCC1(c2ccccc2)CCOCC1)c1cccs1 | 13.9
CC(=O)c1ccc(-c2ccc(/C=C(/Sc3n[nH]c(C)n3)C(=O)O)o2)cc1 | -42.7
O=C(NCc1ccco1)c1ccc(Cn2c(=O)c3ccccc3n(Cc3cccc(Cl)c3)c2=O)cc1 | -5.37
Cc1ccc(N2C(=O)c3ccccc3C2=O)cc1C | 12.7
CCn1c(SCC(=O)NC(C)C(C)C)nc2cc(S(=O)(=O)N3CCOCC3)ccc21 (stereo not shown) | 3.83
COc1ccc(-c2csc3ncnc(N4CCN(c5cccc(Cl)c5)CC4)c23)cc1 | 4.71
O=C1CCCN1CCCNS(=O)(=O)c1ccc(F)cc1F | 8.77
Br.CC(Cc1ccc(O)cc1)NCC(O)c1cc(O)cc(O)c1 (stereo not shown) | 8.75
COc1ccc(/C=N/NC(=O)c2cccc([N+](=O)[O-])c2)cc1OS(=O)(=O)c1ccc(C)cc1 | -16.1
Cc1ccsc1/C=C1\CCC(C2CCCC2)C1=O (stereo not shown) | 6.21
CCC(C)(C(=O)NC1CCCCC1)N(Cc1ccco1)C(=O)c1ccc2c(c1)OCO2 (stereo not shown) | -6

SMILES | hERG current change (%, negative = inhibition) at 10uM [%]
Cc1ccc(S(=O)(=O)N(C)CCCC(=O)N2CCCCC2)cc1 | -4.24
O=C(NC(Nc1ncc(S(=O)(=O)c2ccc([N+](=O)[O-])cc2)s1)(C(F)(F)F)C(F)(F)F)c1ccc(Cl)cc1 | -11.6
O=C(COc1ccc2c3c(c(=O)oc2c1)CCC3)NC(Cc1ccc(Cl)cc1)C(=O)O (stereo not shown) | 3.55
Cc1ccccc1Cn1c(=N)n(CC(O)c2ccco2)c2ccccc21.Cl (stereo not shown) | -59.8
CC(C)CC(c1nnnn1CCc1ccccc1)N1CCC(C(N)=O)CC1 (stereo not shown) | -1.46
Cc1ccc(C)c(Nc2nc(N)c3ccccc3n2)c1.Cl | -24.7
COC(=O)CCCCCCCCC(O)CN(C)C (stereo not shown) | 21.8
CCN1C(=O)[C@H]2[C@@H](c3ccc(-c4ccc(C(C)=O)cc4)cc3)N3CCCC[C@@]3(C(=O)OC)[C@H]2C1=O.O=C(O)C(F)(F)F | 5.59
Cc1ccc(C)c(N2CCN(C(=O)c3cc4c(C)nc5ccccc5c4o3)CC2)c1 | 0.596
CN(C)CCCN1CC(=O)N2[C@@H](Cc3c([nH]c4ccccc34)C2(C)C)C1=O | 13.4
CCC(Cc1ccccc1)NC(=O)C1CCN(S(=O)(=O)c2ccc3c(c2)CC(C)N3C(C)=O)CC1 (stereo not shown) | 1.02
CC(=O)Nc1ccc(NC(=O)C2(C)CC2(Cl)Cl)cc1 (stereo not shown) | 13
N#CCCN(C(=O)c1cc2c(s1)-c1ccccc1S(=O)(=O)C2)c1ccccc1 | -9.63
Cc1ccc(S(=O)(=O)NCC(=O)N(CC2CCCO2)C(C(=O)NCC2CCCO2)C(C)C)cc1 (stereo not shown) | 14.4
Cc1ccc[n+](CC(=O)Nc2cccc(Cl)c2)c1.[Cl-] | 18.4
CC(OC(=O)CCc1ccccc1)C(=O)Nc1ccc(Cl)cn1 (stereo not shown) | -26.2
O=C(/C=C/c1ccc(Cl)c(Cl)c1)N1CCOCC1 | -1.3
Cc1cccc(C(=O)NNC(=O)c2ccc(-c3ccccc3)cc2)c1 | 15.1
Cc1occc1C(=O)Nc1nccs1 | 11.5
COc1ccc(C2(C)NC(=O)N(CC(=O)c3cc(C)n(C4CC4)c3C)C2=O)cc1OC (stereo not shown) | 2.99
CN(CC(=O)Nc1ccccc1N1CCOCC1)S(=O)(=O)c1ccc(F)cc1 | -37.6
Cc1cc(C)n(-c2nc(Nc3ccccc3)nc(-n3nc(C)cc3C)n2)n1 | 15.6

SMILES | hERG current change (%, negative = inhibition) at 10uM [%]
Cc1nc(Cl)c(C(=O)NCCC(C)C)c(C)c1[N+](=O)[O-] | -16.6
COC(=O)C1=CNC=C(C(=O)OC)C1c1cccc(OC)c1 | 4.39
Cc1ccc(C)n1NC(=O)c1ccccc1O | 0.839
C=CCSc1ncc(C(=O)OCC)c(N)n1 | -11.5
COC(=O)N(c1ccccc1)P(=O)(Oc1ccccc1)Oc1ccccc1 | -1.67
O=C(CC1(O)C(=O)Nc2ccccc21)c1cccc(Br)c1 (stereo not shown) | -0.815
O=C(CN1C(=O)c2ccccc2C1=O)OC(C(=O)c1ccc(Cl)cc1)c1ccccc1 (stereo not shown) | 9.99
CCC/C(O)=C1\C(=O)CC(C)(C)CC1=Nc1cccc([N+](=O)[O-])c1 | -30.1
Oc1ccc(Br)cc1/C=N/Nc1ncc(-c2ccccc2)cn1 | 38.9
CCn1nc(NS(=O)(=O)c2ccccc2[N+](=O)[O-])c2cc3cccc(C)c3nc21 | -5.17
COc1ccccc1N(Cc1ccccc1)S(=O)(=O)c1cc(C(=O)O)ccc1Cl | 16.8
CCc1nnc(NS(=O)(=O)c2ccc(N=Cc3c(C)[nH]n(-c4cccc(Cl)c4)c3=O)cc2)s1 | 10.4
COc1ccc(-c2nc(C#N)c(NCCc3ccccc3)o2)cc1OC | -11.1
COc1cc(S(=O)(=O)N2CCN(C(=O)c3ccccc3)CC2)c(OC)cc1Br | -20.3
CN1C(=O)N(CC(=O)N2CCN(c3ccccc3F)CC2)C(=O)C12CCCCC2 | 8.78
Oc1c(C=Nc2ccc(Cl)cn2)sc2ccccc12 | 5.25
Cn1c(=O)c(=O)n(C)c2cc(S(=O)(=O)NCCc3ccccc3)ccc21 | -37.4
Cc1cccc(NC(=S)NC2CC3CCCC(C2)N3CC(C)C)c1C (stereo not shown) | -23.4
CSCCC(NC(=O)c1ccco1)C(=O)OCC(=O)Nc1sccc1C#N (stereo not shown) | -0.514
COc1ccc(NC(=O)Nc2sc(NS(=O)(=O)c3ccccc3)nc2C)cc1 | 32.2
Cn1c(=O)c(-[n+]2ccccc2)c([O-])c2ccccc21 | 5.51
CC1(c2ccccc2)O[C@@H]2C[C@H]3[C@@H]4CCC5=CC(=O)C=C[C@]5(C)[C@@]4(F)[C@@H](O)C[C@]3(C)[C@]2(C(=O)CO)O1 (stereo partly shown) | -78.6

SMILES | hERG current change (%, negative = inhibition) at 10uM [%]
CC(=O)c1ccc(NC(=O)C(C)OC(=O)C2CC(=O)N(c3ccc4c(c3)OCCO4)C2)cc1 (stereo not shown) | 5.57
CCN(CC)C(=O)CSc1nnc2c3ccccc3n(C)c2n1 | -6.44
COCCCNc1nnc(Cc2ccccc2)c2ccccc12 | -31.4
COc1ccc(-n2c(=O)c3c4c(sc3n(CC(=O)NCc3ccco3)c2=O)CCC4)c(OC)c1 | -4.75
CC(=O)COc1ccc2cc(-c3ccccc3)c(=O)oc2c1 | 8.02
Cc1nc(SCC(=O)O)c(C#N)c(-c2ccco2)c1C(=O)N(C)C | 8.55
COc1ccccc1NC(=O)CSc1nc(O)cc(=O)[nH]1 | 11.9
CC1(C)CC(=O)C=C(c2cc3ccccc3s2)C1 | 5.03
CSc1nc(Oc2ccc(C)cc2)cc(C(F)(F)F)n1 | 15
O=C(COC(=O)c1ccc(Br)o1)NCc1ccc(F)cc1 | 9.06
C=CCSc1nnc(NC(=O)CSc2nnc(C)s2)s1 | -8.93
CN1C(=O)/C(=C2\SC(=S)N(NC(=O)c3cccnc3)C2=O)c2ccccc21 | 12.8
COc1ccccc1C1C=C(c2ccc(Cl)cc2)Nc2nc(NS(C)(=O)=O)nn21 (stereo not shown) | -1.88
CC(=O)Nc1ccccc1OC(=O)N(C)C | 2.41
Cc1ccc(S(=O)(=O)CCC(=O)OC(C)C(=O)Nc2ccc(N3CCOCC3)cc2)cc1 (stereo not shown) | 11
O=C(CSc1nnc(Cc2ccccc2)o1)NCc1ccco1 | 28
O=c1c2ccccc2nc(COc2ccccc2)n1/N=C/c1ccc(O)c(O)c1 | -7.78
COc1ccc(S(=O)(=O)N2CCC(C(=O)NCCc3ccccc3)CC2)cc1OC | -17
COC(=O)CC(=O)Cc1nc(N)nc(Nc2ccc(C)c(C)c2)n1 | -9.22

From PMC4336329 (PLoS ONE, 2015)
